{"source": "paper PMC4336329", "about": "(PLoS ONE, 2015)", "note": "Among all 310,000 compounds or so, about 14,000 (4.5%) showed an effect of 50% or more. Effects have a minus sign here. The list shows a part of the results.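 Note: peak tail current of the secondary pulse compared with the same well before compound.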", "data": [{"biological_target": "human ether-à-go-go-related gene (hERG) potassium channel (human, UniProt Q12809)", "sequence (Q12809 whole entry, looked up)": "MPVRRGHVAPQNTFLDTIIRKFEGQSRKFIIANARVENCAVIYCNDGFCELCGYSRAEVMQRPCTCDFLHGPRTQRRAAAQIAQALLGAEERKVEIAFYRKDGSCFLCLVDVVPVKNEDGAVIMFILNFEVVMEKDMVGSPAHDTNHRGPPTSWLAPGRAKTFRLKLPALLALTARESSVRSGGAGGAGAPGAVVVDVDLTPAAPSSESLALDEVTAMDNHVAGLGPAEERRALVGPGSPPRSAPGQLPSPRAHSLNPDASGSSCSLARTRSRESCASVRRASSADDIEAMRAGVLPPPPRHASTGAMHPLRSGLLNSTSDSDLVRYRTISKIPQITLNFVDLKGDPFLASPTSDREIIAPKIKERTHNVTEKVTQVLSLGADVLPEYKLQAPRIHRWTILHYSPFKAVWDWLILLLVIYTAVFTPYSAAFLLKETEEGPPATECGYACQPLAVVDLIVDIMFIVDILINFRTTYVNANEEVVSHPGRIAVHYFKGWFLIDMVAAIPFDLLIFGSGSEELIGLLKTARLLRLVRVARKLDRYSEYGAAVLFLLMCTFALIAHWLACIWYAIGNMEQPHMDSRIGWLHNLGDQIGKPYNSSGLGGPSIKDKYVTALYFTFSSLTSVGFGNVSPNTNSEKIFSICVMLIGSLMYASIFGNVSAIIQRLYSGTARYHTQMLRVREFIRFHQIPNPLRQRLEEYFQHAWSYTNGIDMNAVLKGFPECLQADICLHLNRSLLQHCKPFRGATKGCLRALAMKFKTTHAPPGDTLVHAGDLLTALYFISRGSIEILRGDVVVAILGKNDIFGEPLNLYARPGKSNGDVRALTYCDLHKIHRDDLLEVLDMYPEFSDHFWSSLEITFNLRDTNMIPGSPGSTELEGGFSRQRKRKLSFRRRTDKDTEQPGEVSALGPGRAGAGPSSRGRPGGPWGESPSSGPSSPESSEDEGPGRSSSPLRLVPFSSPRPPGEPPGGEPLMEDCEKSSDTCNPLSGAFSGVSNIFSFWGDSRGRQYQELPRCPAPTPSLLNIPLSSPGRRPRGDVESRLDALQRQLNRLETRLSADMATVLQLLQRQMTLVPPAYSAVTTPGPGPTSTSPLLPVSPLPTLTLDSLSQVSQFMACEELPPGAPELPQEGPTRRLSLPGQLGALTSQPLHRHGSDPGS", "assay": "primary screen, population patch clamp on CHO cells stably expressing hERG", "units": {"hERG current change (%, negative = inhibition) at 10uM": "%"}, "values": [{"smiles": "O=C(CSc1nc(=O)n(CCCN2CCOCC2)c2c1CCC2)Nc1ccc([N+](=O)[O-])cc1", "hERG current change (%, negative = inhibition) at 10uM": -60.4}, {"smiles": "CN(Cc1ccccc1)S(=O)(=O)c1ccc(Cl)c(C(=O)NCc2ccncc2)c1", "hERG current change (%, negative = inhibition) at 10uM": -55.8}, {"smiles": "CCOC(=O)c1c(-c2ccco2)csc1N", "hERG current change (%, negative = inhibition) at 10uM": -0.692}, {"smiles": "CC(C)(C)c1ccc(S(=O)(=O)Nc2noc3ccccc23)cc1", "hERG current change (%, negative = inhibition) at 10uM": 4.81}, {"smiles": "CCOC(=O)N1CCN(C(=O)c2ccccc2NC(=O)COc2ccccc2)CC1", "hERG current change (%, negative = inhibition) at 10uM": -13.2}, {"smiles": "CCOC(=O)C1=C(N)OC2=C(C(=O)CCC2)C1c1sccc1C", "note": "(stereo not drawn)", "hERG current change (%, negative = inhibition) at 10uM": -28}, {"smiles": "O=C(Nc1ccnn1C1CCN(C(=O)c2cccc(Cl)c2)CC1)C1CC1", "hERG current change (%, negative = inhibition) at 10uM": 7.52}, {"smiles": "CN(C)CCCOC(=O)c1sc2ccccc2c1Cl.Cl", "hERG current change (%, negative = inhibition) at 10uM": -50.2}, {"smiles": "O=C(CN(c1ccccc1)S(=O)(=O)c1ccc(Cl)cc1)Nc1ccccc1C(=O)N1CCCC1", "hERG current change (%, negative = inhibition) at 10uM": -54.2}, {"smiles": "COc1ccc2nc(C)cc(SCC(=O)O)c2c1", "hERG current change (%, negative = inhibition) at 10uM": 1.15}, {"smiles": "Cc1ccc(Cl)cc1N1CCN(C(=O)C2CCN(S(=O)(=O)c3cnc[nH]3)CC2)CC1", "hERG current change (%, negative = inhibition) at 10uM": -0.787}, {"smiles": "CN(CC(=O)Nc1ccccc1F)CC(=O)Nc1ccccc1Br", "hERG current change (%, negative = inhibition) at 10uM": 4.44}, {"smiles": "COc1ccc(CNC(=O)CCCCCNC(=O)N2CCn3c2nc2ccccc23)cc1", "hERG current change (%, negative = inhibition) at 10uM": -30.7}, {"smiles": "CN1C2CCC1CC(OC(=O)CCN1CCCC1)C2", "note": "(stereo not drawn)", "hERG current change (%, negative = inhibition) at 10uM": 6.82}, {"smiles": "CC1CCC(=O)N(CCC#N)CC1", "note": "(stereo not drawn)", "hERG current change (%, negative = inhibition) at 10uM": -9.42}, {"smiles": "CCOc1ccc(Nc2nc(N3CCOCC3)nc(N3CCOCC3)n2)cc1", "hERG current change (%, negative = inhibition) at 10uM": -17.9}, {"smiles": "CC(=O)c1ccccc1NS(=O)(=O)c1cccc2nsnc12", "hERG current change (%, negative = inhibition) at 10uM": 11.7}, {"smiles": "Cc1cccc(C(=O)NNC(=O)c2ccc(S(=O)(=O)N3CCOCC3)cc2)c1", "hERG current change (%, negative = inhibition) at 10uM": 5.57}, {"smiles": "CCOc1ccc(S(=O)(=O)NCc2csc(C)n2)cc1", "hERG current change (%, negative = inhibition) at 10uM": -5}, {"smiles": "O=C(Oc1nsnc1N1CCOCC1)N1CCCC1", "hERG current change (%, negative = inhibition) at 10uM": 2.82}, {"smiles": "CCOC(=O)/C(C#N)=C\\C1=C(N2CCOCC2)CC(C)(C)OC1", "hERG current change (%, negative = inhibition) at 10uM": 26.3}, {"smiles": "Cc1c(CN(C)C(=O)/C=C/c2ccc([N+](=O)[O-])cc2)cnn1C", "hERG current change (%, negative = inhibition) at 10uM": -69.6}, {"smiles": "COc1ccc(N2CCN(C(=O)CCNS(=O)(=O)c3cccs3)CC2)cc1", "hERG current change (%, negative = inhibition) at 10uM": -26}, {"smiles": "Cc1ccc(C)c(-n2nnnc2SCC(=O)c2ccc3c(c2)NC(=O)CO3)c1", "hERG current change (%, negative = inhibition) at 10uM": -2.75}, {"smiles": "CCOC(=O)c1c(S(=O)(=O)Nc2cccc(Cl)c2)c(C)n(C)c1C", "hERG current change (%, negative = inhibition) at 10uM": 18.7}, {"smiles": "Cc1ccc(S(=O)(=O)N2CC(O)C[C@H]2C(=O)OCC(=O)Nc2ccc(N3CCCCC3)cc2)cc1C", "note": "(stereo partly drawn)", "hERG current change (%, negative = inhibition) at 10uM": -9.93}, {"smiles": "c1cncc(-c2nn3c(Cn4nnc5ccccc54)nnc3s2)c1", "hERG current change (%, negative = inhibition) at 10uM": -13.6}, {"smiles": "O=C(NCCOC(=O)c1ccc(S(=O)(=O)N2CCOCC2)cc1)c1cccnc1", "hERG current change (%, negative = inhibition) at 10uM": -7.08}, {"smiles": "CN1CCN(NC(=O)c2cn(-c3ccccc3)nc2-c2ccc(OC(F)F)cc2)CC1.Cl", "hERG current change (%, negative = inhibition) at 10uM": 3}, {"smiles": "O=C(C1CCCO1)N(Cc1ccccc1)c1ccccc1", "note": "(stereo not drawn)", "hERG current change (%, negative = inhibition) at 10uM": -1.12}, {"smiles": "CCN1CCN(Cc2c(O)ccc3c2O/C(=C\\C=C\\c2ccccc2)C3=O)CC1", "hERG current change (%, negative = inhibition) at 10uM": -1.47}, {"smiles": "O=C(COc1ccc(Cl)cc1)NCCS(=O)(=O)N1CCN(c2ccccc2F)CC1", "hERG current change (%, negative = inhibition) at 10uM": 5.38}, {"smiles": "O=C(Cn1c2ccc(F)cc2c2nc3n(c(=O)c21)CCS3)NCC1CCCO1", "note": "(stereo not drawn)", "hERG current change (%, negative = inhibition) at 10uM": 5.58}, {"smiles": "O=C1CC(N2CCN(C(c3ccccc3)c3ccccc3)CC2)C(=O)N1", "note": "(stereo not drawn)", "hERG current change (%, negative = inhibition) at 10uM": -0.687}, {"smiles": "O=S(=O)(Nc1ccc(N2CCOCC2)cc1)c1ccc(F)cc1F", "hERG current change (%, negative = inhibition) at 10uM": 6.97}, {"smiles": "COc1ccc(S(=O)(=O)Cc2ccc(C(=O)N3CCc4ccccc4C3)o2)cc1", "hERG current change (%, negative = inhibition) at 10uM": -59}, {"smiles": "NC(=S)Cc1ccccc1Cl", "hERG current change (%, negative = inhibition) at 10uM": 6.37}, {"smiles": "CCc1cc(C(=O)OC)c(NC(=O)CSc2nccn2C)s1", "hERG current change (%, negative = inhibition) at 10uM": -56.9}, {"smiles": "S=P(Nn1cnnc1)(c1ccc(Br)cc1)c1ccc(Br)cc1", "hERG current change (%, negative = inhibition) at 10uM": -0.834}, {"smiles": "COCCN1CCN(C(=O)c2cc(COc3cncc(Cl)c3)on2)CC1", "hERG current change (%, negative = inhibition) at 10uM": 10.6}, {"smiles": "COc1ccc(S(=O)(=O)NCCSc2ccccc2)cc1OC", "hERG current change (%, negative = inhibition) at 10uM": -7.1}, {"smiles": "Cc1ccc(NC(=O)c2cccnc2)cc1S(=O)(=O)N(C)C", "hERG current change (%, negative = inhibition) at 10uM": 22.8}, {"smiles": "Cc1ccc(S(=O)(=O)CC(=O)Nc2sc(C)c(C)c2C(N)=O)cc1", "hERG current change (%, negative = inhibition) at 10uM": -1.83}, {"smiles": "CN(C)C(=S)NC1(C)CCS(=O)(=O)C1", "note": "(stereo not drawn)", "hERG current change (%, negative = inhibition) at 10uM": 6.89}, {"smiles": "Cc1cccc(C(=O)N(C)c2nnc(-c3ccncc3)s2)c1", "hERG current change (%, negative = inhibition) at 10uM": 1.3}]}]}
